Hit rate of the full screen: of about 310,000 compounds, about 14,000 (4.5%) showed an effect of 50% or more. The effect is printed as a negative number. The list shows a part of the results.
Target: human ether-à-go-go-related gene (hERG) potassium channel (human, UniProt Q12809)
Assay: primary screen, population patch clamp on CHO cells stably expressing hERG
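Further: peak tail current of the secondary pulse compared with the same well before compound.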

human ether-à-go-go-related gene (hERG) potassium channel, sequence (Q12809 whole entry, looked up): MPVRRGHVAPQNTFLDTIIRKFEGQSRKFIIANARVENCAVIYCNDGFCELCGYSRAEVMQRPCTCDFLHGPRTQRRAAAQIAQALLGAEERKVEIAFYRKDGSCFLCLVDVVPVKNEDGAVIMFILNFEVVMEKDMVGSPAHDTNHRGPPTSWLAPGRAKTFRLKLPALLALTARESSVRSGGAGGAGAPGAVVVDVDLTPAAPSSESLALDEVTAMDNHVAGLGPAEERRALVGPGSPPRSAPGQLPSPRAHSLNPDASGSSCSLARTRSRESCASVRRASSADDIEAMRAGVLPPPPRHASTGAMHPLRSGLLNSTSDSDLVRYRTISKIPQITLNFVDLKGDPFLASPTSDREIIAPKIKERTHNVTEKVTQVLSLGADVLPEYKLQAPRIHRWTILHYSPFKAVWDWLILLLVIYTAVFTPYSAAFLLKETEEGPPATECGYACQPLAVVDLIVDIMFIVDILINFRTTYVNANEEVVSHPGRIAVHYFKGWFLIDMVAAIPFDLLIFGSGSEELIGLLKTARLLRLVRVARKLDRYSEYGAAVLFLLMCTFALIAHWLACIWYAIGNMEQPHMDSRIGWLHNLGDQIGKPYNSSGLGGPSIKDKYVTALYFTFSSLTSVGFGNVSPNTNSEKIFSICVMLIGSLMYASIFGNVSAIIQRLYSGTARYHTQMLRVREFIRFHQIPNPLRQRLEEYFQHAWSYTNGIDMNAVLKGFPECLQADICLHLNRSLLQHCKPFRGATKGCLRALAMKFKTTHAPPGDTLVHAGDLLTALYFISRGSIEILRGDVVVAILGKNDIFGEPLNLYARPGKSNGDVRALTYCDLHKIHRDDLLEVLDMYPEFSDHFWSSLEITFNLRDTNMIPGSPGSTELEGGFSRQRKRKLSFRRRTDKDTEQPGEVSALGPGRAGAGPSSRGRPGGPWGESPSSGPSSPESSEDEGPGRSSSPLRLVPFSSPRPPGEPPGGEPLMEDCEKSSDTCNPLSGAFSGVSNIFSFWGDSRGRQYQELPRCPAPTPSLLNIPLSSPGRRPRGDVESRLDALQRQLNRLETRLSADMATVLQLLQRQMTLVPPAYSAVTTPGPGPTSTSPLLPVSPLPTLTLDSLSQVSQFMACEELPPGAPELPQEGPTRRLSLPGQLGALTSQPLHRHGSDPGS

Structure (SMILES)	hERG current change (%, negative = inhibition) at 10uM [%]
Cc1cnc(C(=O)OCC(=O)NC(=O)c2ccccc2)cn1	12.8
Cc1cccc(NC(=O)CCNS(=O)(=O)c2cccc3nonc23)c1C	12.4
COc1ccc(OC)c(NC(=O)C2=C(C)Nc3ncnn3C2c2cccs2)c1 (stereo not shown)	2.8
Cc1cccc(Nc2nnc(SCc3cc(=O)n4cc(C)ccc4n3)s2)c1	22
CCOc1ccccc1NC(=O)C1CCCN(S(C)(=O)=O)C1 (stereo not shown)	7.31
Cn1c2c(c(=O)n(C)c1=O)C(c1ccc(Br)cc1)C(C#N)=C(N)N2 (stereo not shown)	11.6
Cc1ccc(Cn2c(=O)cc(C(=O)O)c3ccccc32)cc1	-1.27
COc1cc(S(=O)(=O)NCc2ccc(F)cc2)ccc1-n1cnnn1	-40.2
CC(C)(C)NC(=O)C1CC2CCCCC2CN1 (stereo not shown)	13
CSc1ccc(C2CC(=O)Nc3nc(SC)[nH]c(=O)c32)cc1 (stereo not shown)	15
CNC(=O)CSc1nc(-c2ccccc2)c(-c2ccccc2)[nH]1	-8.63
CC(=O)Oc1ccc(N2C(=O)c3cccc4c([N+](=O)[O-])ccc(c34)C2=O)cc1	24.3
Cc1nnc(NC(=O)c2c(F)c(F)c(F)c(F)c2F)s1	18.5
COC(=O)C1=CN(Cc2ccc(OC)cc2)C=C(C(=O)OC)C1c1ccsc1	26
Cc1nnc(SCC(=O)N2CCN(S(=O)(=O)c3ccccc3)CC2)s1	-4.48
CCOc1ccccc1N1CCN(S(=O)(=O)c2ccc3c4c(cccc24)C(=O)N3)CC1	-18.9
CC(=O)CC(=O)Nc1ccc(C(N)=O)cc1	9.92
COc1c2c(nc3occc13)C(CC=C(C)C)(OC)C(=O)C=C2 (stereo not shown)	-0.182
COc1ccccc1NCC(=O)N1CCN(S(=O)(=O)c2ccccc2)CC1	1.34
CC(=O)Nc1ccc(N(C(=O)c2ccco2)C(C(=O)NC2CCCC2)c2ccncc2)cc1 (stereo not shown)	9.75
CCc1nnc(NC(=O)CCC(=O)N2CCN(Cc3cc(F)ccc3OC)CC2)s1	7.44
COc1ccc(N2CCN(C(=O)c3ccc4nc(N5CCCCC5)sc4c3)CC2)cc1	7.28

Structure (SMILES)	hERG current change (%, negative = inhibition) at 10uM [%]
COc1cc(NC(=O)Cn2nc(Cc3cccnc3)c3ccccc3c2=O)cc(OC)c1OC	-0.339
O=C(Nc1ccc(F)cc1)C1CC(=O)n2cnnc2N1 (stereo not shown)	12.4
O=C(O)c1c[nH]c2ccc(S(=O)(=O)N3CCN(c4ccc(F)cc4)CC3)cc2c1=O	-11.4
O=C1CCCN1c1nccs1	21.2
CCN(Cc1ccccc1)Cc1cccc([N+](=O)[O-])c1	-23.5
COc1ccc(CN2CC(=O)N(c3ccccc3OC)C2=S)cc1OC	5.92
Cc1ccc(S(=O)(=O)N(C)C)cc1NC(=O)CN1c2cccc3cccc(c23)S1(=O)=O	10.2
CCN(CC)C(=O)CSc1nnc(-c2ccco2)o1	3.66
O=C(Cn1c2ccccc2c2nc3n(c(=O)c21)CCS3)Nc1ccccc1	13.3
C/C(=N\Nc1nc(C)cc(C)n1)c1ccc(N2CCOCC2)cc1	-5.51
COc1ccc(-c2csc3nc(-c4ccccc4F)oc(=O)c23)cc1OC	-3.61
CCOC(=O)/C(C#N)=C/c1ccc(N2CCCCC2)cc1	-60.9
C=C(C)COc1ccc(-c2ncncc2-c2ccccc2OC)c(O)c1	1.92
Cc1csc(CNc2ncnc3ccc(-c4ccc5c(c4)OCCO5)cc23)c1	5.22
O=c1[nH]c(=O)n(Cc2ccc(F)cc2)c(O)c1/C=N/Nc1ccccc1	4.85
FC(F)(F)C(F)(F)C(F)(F)c1nnc2ccc(N3CCOCC3)nn12	-4.23
O=C(Nc1nc2c(s1)CN(Cc1ccccc1)CC2)C1CCCC1	-18.8
CCn1c2ccccc2c2cc(NC(=O)CSc3nnc(-c4ccccc4OC)n3N)ccc21	7.44
Cc1cc(=O)n(Cc2ccc(OC(C)C)cc2)c(=S)[nH]1	-5.37
O=C(CN1CCc2cc3c(cc2C1)OCCCO3)Nc1cccc([N+](=O)[O-])c1	-8.91
CC(C)(C)c1ccc(CS(=O)CC(O)CO)cc1 (stereo not shown)	19.3
O=C(NC1(N2CCOCC2)CC1)c1ccc(Cl)cc1	19.5

Structure (SMILES)	hERG current change (%, negative = inhibition) at 10uM [%]
CC(C)NC(=O)CCc1nnc(Cc2cccc(C(F)(F)F)c2)o1	10.7
CCNc1ccc(P(=S)(N(C)C)N(C)C)cc1	-10.1
CCOC(=O)C1CCCN(C(=O)c2cc(=O)c3ccccc3o2)C1 (stereo not shown)	-0.632
CCOCCCNC(=O)c1ccc(CS(=O)(=O)Cc2ccc(C)cc2)o1	6.15
C/C(=N\NC(=O)COc1ccc(C(C)(C)C)cc1)c1cc2ccccc2o1	-14.7
CCOC(=O)C1=C(N)OC2=C(C(=O)CC(C)C2)C1c1cccnc1 (stereo not shown)	0.824
CCn1c(NC(=O)c2ccccc2F)c(-c2cccs2)c(=O)c2ccccc21	-6.52
CS(=O)(=O)N(CC(=O)Nc1cc(Cl)ccc1Cl)c1ccccc1	-7.32
CCOC(=O)c1ccc(NC(=O)C2(c3ccccc3)CCCC2)cc1	-19.6
Cc1nc2c(C)cccn2c(=O)c1NC(=O)c1cccc2ccccc12	10.5
COc1cccc(-n2c(O)c(C=NCCN3CCNCC3)c(=O)[nH]c2=S)c1	5.08
O=C(NCc1ccco1)C(c1ccccc1)N(C(=O)Cc1cccs1)c1ccccc1 (stereo not shown)	19
O=P(O)(CCc1ccncc1)CN1CCCCC1	22.2
Cc1ccccc1NC(=O)Cn1cnc2c1c(=O)n(C)c(=O)n2C	13.3
COCCN(C(=O)CSc1nnc(C)n1-c1ccc(C)cc1)c1c(N)n(Cc2ccccc2)c(=O)[nH]c1=O	-2.83
CCO[C@@H]1OC(C(N)=O)=C[C@H](c2coc3ccccc3c2=O)[C@H]1CCCO	-1.47
C/C(=C\c1ccccc1)C(=O)NC1CCSC1=O (stereo not shown)	-4.78
Cc1nc(CN2CCCCC2)cc(=O)[nH]1	20.2
CN1C(=O)N(c2nnc(C(C)(C)C)s2)C(=O)C1c1ccccc1 (stereo not shown)	9.54
Cc1oc2c(C)c3oc(=O)c(CCC(=O)O)c(C)c3cc2c1-c1ccccc1	17.9
O=S(=O)(Cc1ccccc1)N1CCn2c(nc3ccccc32)C1	9.91
Cc1ccc(C(=O)N2CCN(c3ccccc3)CC2)cc1NC(=O)c1ccco1	-45.7

Structure (SMILES)	hERG current change (%, negative = inhibition) at 10uM [%]
C=CCC1C(=O)NC(=S)NC1=O	23.2
Cc1occc1C(=O)NNC(=S)Nc1cccc([N+](=O)[O-])c1	8.3
Cc1cc(OCC(=O)N2CCCN(C)CC2)ccc1Cl	1.3
Nc1nc(-c2ccccn2)nc(N)c1Cc1c(F)cccc1Cl	-4.24
CCOC(=O)CC1COCCN1C(=O)c1cc(COc2ccc(F)c(F)c2)on1 (stereo not shown)	-61.5
N=C1/C(=C\c2ccc(SCc3ccco3)o2)C(=O)N=C2SC=NN12	25.3
CC(C)(C)c1ccc(C(=O)NCC(=O)NNC(=O)c2ccccc2O)cc1	10.3
O=C(NS(=O)(=O)Oc1ccccc1F)OC[C@@H]1CCCN2CCCCC12 (stereo partly shown)	41.2
Cc1[nH]c2ccccc2c1/C=C(\C#N)C(=O)NC(C)c1ccccc1 (stereo not shown)	16.4
O=C(CSc1nnc(-c2cccc(Br)c2)o1)N1CCOCC1	0.556
COc1cc(C=C2C(=O)c3ccccc3C2=O)cc(OC)c1	16.8
Cc1ccc(N(CC(=O)NCC2CCCO2)C(=O)CCC(=O)Nc2ccccn2)cc1C (stereo not shown)	-2.39
CC(=O)c1c(C)[nH]c(C2=NNC(=NC(C)(C)C)SC2)c1C	19.8
COc1cccc2c1Oc1ncccc1N(C(=O)CCC(=O)NCc1ccc(F)cc1)C2	-32.6
O=S(=O)(NCc1ccccc1)c1ccc(S(=O)(=O)N(Cc2cccs2)CC2CCCO2)cc1 (stereo not shown)	11.4
COc1ccc(NC(=O)C2CCC(CNc3c(N4CCCCC4)c(=O)c3=O)CC2)cc1OC (stereo not shown)	-5.56
NS(=O)(=O)c1cc2c(cc1Cl)NC(CSCc1ccccc1)=NS2(=O)=O	19.6
Cc1onc(-c2ccccc2Cl)c1C(=O)Oc1cc(N)n(S(=O)(=O)c2ccc(F)cc2)n1	-3.48
COc1ccc(N2CCN(C(c3ccccc3)c3sc4nc(C)nn4c3O)CC2)cc1 (stereo not shown)	-22.1
O=C(NNC(=O)c1ccccc1Cl)c1ccc2c(=O)n3c(nc2c1)CCC3	-3.69
Cc1oc(-c2ccccc2F)nc1CS(=O)CC(=O)NCc1ccc2c(c1)OCO2 (stereo not shown)	-20.7
Cc1ccnc(SCc2cc(=O)c(OC(=O)c3ccc(Cl)c([N+](=O)[O-])c3)co2)n1	-20.4
